62 compounds from publication PMC6919601, “Identification of Plasmodium dipeptidyl aminopeptidase allosteric inhibitors by high throughput screening” (PLoS ONE, 2019) can be followed below.

Structures are written as SMILES. About 230 (0.21%) of roughly 110,000 compounds showed an effect of 50% or more. The list shows a part of the results.
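Note: 30 min substrate incubation versus DMSO and 10 µM JCP410 controls.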

DPAP1, sequence (Q8IIJ9 whole entry, looked up): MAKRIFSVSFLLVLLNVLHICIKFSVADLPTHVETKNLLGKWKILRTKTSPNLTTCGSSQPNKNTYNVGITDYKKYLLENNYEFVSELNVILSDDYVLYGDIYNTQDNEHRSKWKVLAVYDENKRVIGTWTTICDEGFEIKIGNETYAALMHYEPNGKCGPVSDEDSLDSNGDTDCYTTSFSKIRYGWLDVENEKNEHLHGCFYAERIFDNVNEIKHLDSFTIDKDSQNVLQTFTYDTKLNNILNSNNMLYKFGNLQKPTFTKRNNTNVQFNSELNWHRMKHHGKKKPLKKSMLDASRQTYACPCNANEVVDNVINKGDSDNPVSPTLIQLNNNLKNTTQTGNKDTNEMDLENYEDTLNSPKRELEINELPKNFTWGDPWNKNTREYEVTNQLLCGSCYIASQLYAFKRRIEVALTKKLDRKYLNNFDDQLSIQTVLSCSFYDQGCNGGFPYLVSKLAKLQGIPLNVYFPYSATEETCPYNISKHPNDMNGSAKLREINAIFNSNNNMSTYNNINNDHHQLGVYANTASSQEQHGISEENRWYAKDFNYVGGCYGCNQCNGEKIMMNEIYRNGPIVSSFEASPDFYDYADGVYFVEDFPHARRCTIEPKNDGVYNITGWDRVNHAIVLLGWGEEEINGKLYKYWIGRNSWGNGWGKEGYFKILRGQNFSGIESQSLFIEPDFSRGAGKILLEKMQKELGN

This assay concerns the target DPAP1 (Plasmodium falciparum, UniProt Q8IIJ9). The experiment in a line: primary screen, percent inhibition; read by cleavage of a fluorogenic dipeptide substrate; higher = more effect of the substance. The arrangement: species or system P. falciparum D10 trophozoite lysates; single well. As to the method:
HTS was performed in black 384-well plates. The first and last two columns of each plate contained our negative (DMSO) and positive (10 μM JCP410) controls, and the 20 central columns the test compounds at 10 μM. Compounds were first diluted 50-fold into assay buffer (50 mM sodium acetate, 5 mM MgCl2, 10 mM β-mercaptoethanol, and 0.1% CHAPS, pH 5.5) from a 10 mM DMSO stock plates. One microliter of this 200 μM intermediate stock plate was dispensed into the assay plate. […] After 30 min, the reaction was quenched with 20 μL of 0.5 M acetic acid, and the fluorescent intensity measured at 523 nm (λex = 492 nm) using an Analyst HT multimode plate reader (Molecular Devices).
Take `CCOc1ccc(/C=C/C2=CC(C)(C)NC(S)=N2)c(Cl)c1`: the “% Inhibition @ 10 uM” value is recorded as -5.27%. Consider `CC(CCCC(C)(C)O)NC1CCCCCCC1` (centres unmarked), for which the “% Inhibition @ 10 uM” value is -1.81%. Turning to `Cc1ccc2ncc(S(=O)(=O)c3ccccc3)c(N3CCC4(CC3)OCCO4)c2c1`, the “% Inhibition @ 10 uM” value is -8.02%. With `Cc1cc2n(n1)C(c1cc(Br)ccc1O)Nc1ccccc1-2` (centres unmarked) the figure was 0.83%; with `CC(C)C[C@H](NC(=O)/C=C/S(=O)(=O)c1ccccc1)C(=O)N1CCC[C@H]1C(=O)O`, 5.05%; with `COc1ccccc1OCC(=O)NCCC1=CCCCC1`, -1.42%. The value for `O=C(COc1cc(Cl)c(Cl)cc1Cl)Nc1cccnc1` was 0.161%; that for `O=C(Nc1ccc(NC(=O)c2ccco2)cc1)c1ccc(Cl)cc1` was -6.79%. With `O=C(CCc1ccccc1)n1nc(-c2ccccc2)nc1NCc1ccco1` the figure was -1.11%. In the case of `CCC(C)C(NC(=O)C1CCC(C)CC1)C(=O)NCCc1ccccc1` (centres unmarked), the “% Inhibition @ 10 uM” value is reported as -2.49%. With `CC1CCN(c2ccc3nnc(CCC(=O)Nc4cccnc4)n3n2)CC1` the figure was -6.16%. The value for `Cc1ccccc1CCNC(=O)Cn1ccc2cc(S(=O)(=O)N3CCC(C)CC3)ccc21` was -1.81%; that for `CCC[C@H](NC(=O)C(CSCc1ccccc1)CSCc1ccccc1)C(=O)c1nc2ccccc2o1` was -0.214%. The value for `CC(=O)c1ccc(N2C(=O)c3cccc4cc(Br)cc(c34)C2=O)cc1` was 11.3%. Regarding `CC(C)(C)C1CCc2onc(C(=O)NCCc3ccccc3)c2C1` (centres unmarked), the “% Inhibition @ 10 uM” value is listed as -0.591%.

`Cc1sc(-n2cccc2CNCc2cccs2)c(C(=O)O)c1C`: the “% Inhibition @ 10 uM” value is -3.57%. With `C=Cc1ccc(Cn2c(C(=O)O)c(CNC3CCC(C)CC3)c3ccccc32)cc1` (centres unmarked) the figure was 1.93%. As for `COc1cc(/C=C2/C(=N)N3OC(C)=CC3=NC2=O)ccc1O`, the “% Inhibition @ 10 uM” value is reported as -1.43%. Turning to `Cc1[nH]c2ccccc2c1SCCNC(=O)COc1ccccc1`, the “% Inhibition @ 10 uM” value is recorded as -3.27%. As to `Cc1ccc(C2=C/C(=C\c3ccccc3C)C(=O)O2)cc1`, the “% Inhibition @ 10 uM” value was -6.87%. The value for `CCn1c2ccccc2c2cc(CN3CCN(S(=O)(=O)c4ccc(OC)cc4)CC3)ccc21` was 22.9%; that for `COCCN1C(=O)/C(=C\c2cc3c(cc2Br)OCO3)S/C1=N\c1ccccc1` was 17.6%; that for `COc1cc(/C=C2\C(=N)N3N=C(N4CCCC4)SC3=NC2=O)ccc1OCc1ccccc1F` was 1.72%.

Turning to `Clc1ccc2scc(CN3CCCCC3)c2c1`, the “% Inhibition @ 10 uM” value is -2.45%.

Regarding `Cc1ccc(N2C(=O)C(Cl)=C(N3CCCCC3)C2=O)cc1Cl`, the “% Inhibition @ 10 uM” value is on record as -5.34%. With `CC(=O)c1sc(N2C(=O)c3oc4ccc(F)cc4c(=O)c3C2c2ccc(C(C)C)cc2)nc1C` (centres unmarked) the figure was 5.3%; with `COc1ccc(NC(=O)c2c(NC(=O)c3cccs3)sc3c2CCCC3)c(OC)c1`, -4.68%; with `COc1cccc(N(CC(=O)Nc2cccc(C)c2)S(=O)(=O)c2ccc(C)cc2)c1`, 0.00477%. The value for `CNC(=O)C1C(S)=NC(N)=C(C#N)C1c1ccccc1` (centres unmarked) was 0.746%. With `Nc1cc(S(=O)(=O)c2ccc(O)c(N)c2)ccc1O` the figure was -2.66%; with `COCCCNC(=O)Cn1cnc2sc(C)cc2c1=O`, -5.76%.

Consider `COc1cc(/C=c2\sc3nc(=O)c(C)nn3c2=O)ccc1OCCC(C)C`, for which the “% Inhibition @ 10 uM” value is on record as -3.06%. `N#CC1=C(N)N(c2ccc(F)cc2)C2=C(C(=O)CCC2)C1c1cccs1` (centres unmarked): the “% Inhibition @ 10 uM” value amounted to 0.751%. The value for `CCCCn1c(SCC(=O)Nc2c(C)cccc2C)nc2c1c(=O)n(C)c(=O)n2C` was 3.19%. The value for `O=C1CS/C(=N\c2ccccc2)N1c1ccccc1` was -2.51%; that for `c1ccc2c(c1)c(NC1CCCCCCC1)nn1nnnc21` was 0.368%; that for `C=CCN(c1nc(C)cc(OC)n1)S(=O)(=O)c1ccc(C)cc1` was -2.03%. The value for `CC(N)CNc1ccc([N+](=O)[O-])c2cccnc12` (centres unmarked) was 2.17%. `CC1=CC2=NC(=O)/C(=C\c3cccn3CCOc3ccccc3)C(=N)N2O1`: the “% Inhibition @ 10 uM” value is reported as -1.43%. The value for `CC[C@H](NC(=O)[C@H](Cc1c(F)cccc1F)NC(=O)c1ccc(-c2ccccc2Cl)nc1)C(=O)c1nc2ccccc2o1` was -0.207%. With `CC(=O)c1cnc2cc(-c3ccccc3)nn2c1C` the figure was 6.21%; with `COC(=O)C1=C(C(=O)OC)SC(=C2C(=S)C(C)(C)Nc3cc(C)ccc32)S1`, -2%. With `Cc1cc(C)c(C#N)c(SCC(=O)N2CCCCC2)n1` the figure was 16.7%; with `CCC(NS(=O)(=O)c1ccc(Cl)cc1)C(=O)O` (centres unmarked), -0.902%; with `Cc1cccc(NC(=O)CN(C2CCCCC2)S(C)(=O)=O)c1C`, -6.62%.

Take `O=C(NCCN1CCCCCC1)c1cc2c(s1)-c1ccccc1OC2`: the “% Inhibition @ 10 uM” value turned out to be 4.95%.

As for `CCn1cc(/C=C(\NC(=O)c2ccc(C)cc2)C(=O)NCCCN2CCOCC2)c2ccccc21`, the “% Inhibition @ 10 uM” value is -3.52%. The value for `O=C1CC(c2ccccc2)CC(=O)C1=CNCc1ccncc1` (centres unmarked) was -0.142%. Take `CCOC(=O)c1c(C)[nH]c(C)c1S(=O)(=O)N1CCC(C(=O)NCCC2=CCCCC2)CC1`: the “% Inhibition @ 10 uM” value is listed as -8.67%. In the case of `Cn1ncc2c(NCC3CCCO3)ncnc21` (centres unmarked), the “% Inhibition @ 10 uM” value is -1.1%.

In the case of `O=C(NCCC1=CCCCC1)C1CCCN(S(=O)(=O)c2ccc3nc(O)ccc3c2)C1` (centres unmarked), the “% Inhibition @ 10 uM” value is given as -3.43%.

On to `CCOCCCN1CC(C(=O)NCCc2ccccc2)CC1=O` (centres unmarked), for which the “% Inhibition @ 10 uM” value was -4.83%. As for `O=c1cc(-c2ccc(Cl)cc2)sc2nnc(-c3ccncc3)n12`, the “% Inhibition @ 10 uM” value is recorded as 3.47%.

`Brc1ccc(-c2cn3ncsc3n2)cc1`: the “% Inhibition @ 10 uM” value is reported as 0.548%. The value for `Cc1cccc(C)c1NC(=O)CSc1nc(N)cc(O)n1` was -0.116%.

`CC(=O)c1ccc(NC(=O)COc2ccc(C)cc2Br)cc1`: the “% Inhibition @ 10 uM” value is -2.03%. Turning to `CC(C)C[C@H](NC(=O)c1cccc(-c2ccccc2S(C)(=O)=O)c1)C(=O)NCC#N`, the “% Inhibition @ 10 uM” value turned out to be 1.35%. With `O=C(Nc1ccc(-c2noc(-c3cccs3)n2)cc1)c1cccc(Br)c1` the figure was 1.19%.

Regarding `CC(=O)N1CCN(CC(C)c2ccccc2)CC1` (centres unmarked), the “% Inhibition @ 10 uM” value is reported as -3.8%. The value for `CC(C)Cn1c(=O)c2ccccc2n2c(CCC(=O)N3CCN(C(=O)c4ccco4)CC3)nnc12` was -2.42%; that for `Clc1ccc(CN2CCN(c3ccccc3)CC2)c(Cl)c1` was -3.56%; that for `COc1ccc(C(=O)Cn2ccnc2C(=O)N2CCN(c3ccccn3)CC2)cc1` was 6.31%.
